Results reported in the supplement of paper PMC3334620.
In all, about 33,000 sequences were measured (“E-score (-0.5 to 0.5)”: median about -0.043, highest 2% from about 0.37 on). The list shows a part of the results.

biological target: T1, Upc2 (UniProt Q12151); experiment: PBM E-score (8-mer binding enrichment) (E-score (-0.5 to 0.5)); higher = stronger / more preferred TF binding; most listed sequences are background and not binding sites; details: protein concentration: 200 nM; construct: GST-full length
T1 sequence: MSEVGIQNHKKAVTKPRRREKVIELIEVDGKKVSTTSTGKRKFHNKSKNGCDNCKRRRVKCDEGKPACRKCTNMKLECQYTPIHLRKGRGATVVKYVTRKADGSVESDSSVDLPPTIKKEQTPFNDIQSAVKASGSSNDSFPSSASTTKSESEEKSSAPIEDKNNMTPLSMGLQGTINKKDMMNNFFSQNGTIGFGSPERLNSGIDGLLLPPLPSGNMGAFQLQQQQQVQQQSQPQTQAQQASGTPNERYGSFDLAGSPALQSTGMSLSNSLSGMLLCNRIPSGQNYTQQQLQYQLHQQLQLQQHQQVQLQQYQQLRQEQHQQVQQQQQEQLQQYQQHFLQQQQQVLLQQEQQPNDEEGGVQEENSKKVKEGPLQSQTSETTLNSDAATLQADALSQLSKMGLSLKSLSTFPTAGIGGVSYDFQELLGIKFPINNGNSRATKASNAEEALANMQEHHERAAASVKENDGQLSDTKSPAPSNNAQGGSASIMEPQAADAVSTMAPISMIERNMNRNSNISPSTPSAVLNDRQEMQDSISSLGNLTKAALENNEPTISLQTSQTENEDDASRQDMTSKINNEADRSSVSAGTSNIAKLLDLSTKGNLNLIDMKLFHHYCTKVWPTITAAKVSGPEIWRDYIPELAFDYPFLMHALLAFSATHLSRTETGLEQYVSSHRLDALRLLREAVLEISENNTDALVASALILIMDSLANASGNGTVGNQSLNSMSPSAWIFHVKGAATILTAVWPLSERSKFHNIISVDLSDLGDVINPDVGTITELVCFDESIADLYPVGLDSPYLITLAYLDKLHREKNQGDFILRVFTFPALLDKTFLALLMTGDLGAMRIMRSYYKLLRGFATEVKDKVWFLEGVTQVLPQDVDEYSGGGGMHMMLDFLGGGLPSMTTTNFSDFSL
In short: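 GST-tagged yeast TFs (full-length or DNA-binding domain) were made by PURExpress in vitro transcription/translation and applied at about 100-200 nM to universal all-10-mer Agilent arrays. The arrays were made double-stranded by primer extension, on fresh or once-stripped slides. Bound protein was detected with fluorescent anti-GST, and scans were normalised with masliner. Each ungapped eight-base word, pooled with its reverse complement, received an E-score (modified Wilcoxon-Mann-Whitney statistic) from the Universal PBM Analysis Suite.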

Sequence | PBM E-score
ACGCTGTG | 0.0374
AGGTGTCG | 0.0238
CTGGCCCA | -0.336
AGCCGCTA | -0.0668
CATCAGGA | 0.0755
AGACACCC | -0.0928
AATCAAGC | -0.0523
CAACTTAC | -0.08
CCGGCTTC | -0.14
GAGGGTGC | -0.184
AAGTTGAT | -0.058
CCTCTCTC | -0.0681
ACTGATGC | 0.0136
AGTGTCTG | -0.0961
CATAATCA | 0.0447
TCGTGCAA | 0.136
CGCATGAC | -0.0746
ACTTATTC | -0.0293
ACCCGGTC | -0.174
AAGCTTCG | 0.145
ATTGTTAA | 0.0613
CACCGCTA | -0.0668
CTGTTAAG | -0.1
GTCGATTA | 0.256
TCACGTAA | 0.0344

Sequence | PBM E-score
CGGCCAAA | -0.011
TCCATGAA | -0.0219
CGAGCAAC | 0.197
GGTTACCA | 0.156
GCCCCCGC | -0.158
ACGGCCAT | -0.00781
GACGCTGA | -0.125
GCTTGACA | -0.215
AACTGTGT | -0.137
AGCAAGCA | -0.103
ACGCGGAT | 0.202
ATTTCCCG | 0.0793
TAGAGGAA | -0.115
ATCACGCA | -0.15
AAAGCGCT | 0.127
GTAGCGGA | 0.184
CGTCGGGA | 0.132
CTGGTCGC | -0.0371
ATTGGCAA | -0.0524
CGTCACTA | -0.0224
CCAATCAG | -0.173
AGCGGCAG | -0.0199
CCGTGTTA | -0.0507
ACCTTTAG | -0.194
ACTAAGGC | -0.223

Sequence | PBM E-score
ATGTACTA | 0.0361
CCTGTTAA | -0.117
ATAGAACA | -0.161
AAAGGTCT | -0.0303
AGAGTGTA | -0.0753
CGGCCCAC | -0.287
GGCATCGA | -0.168
CCCTCCGC | -0.179
AATACACA | 0.0581
ACTTCAGA | -0.00925
TAGCGCCA | -0.0831
CAACTGAG | 0.00646
GACAACCA | -0.041
CGGTCAAC | 0.148
AGACGCCG | 0.0212
GAAGCCGA | -0.108
TAGGGATA | -0.108
CTGGTTAA | -0.00033
CCTCTTAG | -0.0365
ATGTGGAA | 0.0482
GGAATAAC | 0.154
CGGGAATC | -0.0629
GCTGGGCC | -0.217
TATTCACA | 0.101
CACTCGCG | 0.0771

Sequence | PBM E-score
TAGTTTGA | 0.181
CTCGTACA | 0.489
ACGTGTGA | -0.0987
ATAACGCC | -0.0542
ACTGTTCG | 0.16
ATCGCGTA | 0.243
AACTCTTC | -0.0296
TAAACGTA | 0.407
AACCGGTG | 0.0679
ACCTATGG | -0.199
CTATCCCA | -0.0733
GAGAAACC | -0.0175
AGACGAGG | 0.215
CCTCCTTA | 0.0732
AGTAATTA | -0.127
CCATCCGC | 0.0979
AAGTTTGT | -0.112
AACCGATC | 0.168
GTCACATA | 0.00148
CATCTCAC | -0.0639
CTCTCTCA | -0.303
CACACACC | 0.0034
CTCCGGCC | -0.206
AAGGATTG | -0.175
ACATCGTG | -0.0454

Sequence | PBM E-score
AGCACCAA | -0.209
CACGCCTG | -0.276
AAGTACCG | 0.0804
CTGAACGA | 0.472
ATGCCGTA | 0.344
CGCATTGC | -0.0225
CGGATCAC | -0.00707
GCCTTACA | 0.00283
AGACAGCC | -0.108
CCCTTTAA | -0.179
TATACGGA | 0.47
AAGTTCTC | -0.152
AGTAAGCG | 0.0959
TATGCTAA | -0.092
CCACCGTC | -0.227
TACAGCCA | -0.154
TTCCACAA | -0.0408
CGTAATAA | 0.253
ACGAGGAC | 0.384
CGCACTAA | 0.117
CGTATCGC | 0.363
ATCGAAGA | 0.105
GCCCCCAC | -0.244
CTCCTCTC | -0.0491
ACTGACAC | -0.167

Sequence | PBM E-score
AAGGGAAT | -0.0354
ATTCCACC | -0.0449
GAGCCGAA | -0.0102
TGGCGTAA | 0.0743
CCTCAAGG | -0.289
CAAGGCAG | -0.32
AGGCGTGA | -0.00507
ATGCAGGC | -0.0697
CGATCCAC | 0.128
AAAGAGGC | 0.0418
GATAAGCC | -0.225
CCGCTCCA | 0.0472
ACCCACCG | -0.14
CACGCGTG | -0.0413
TACCCAGA | -0.0643
CCGATCAG | 0.0147
CGTAGTTA | 0.123
ATCGGGAA | 0.0315
CCCCGTTC | 0.299
AACCGTAC | 0.311
CACCGAAC | -0.0384
ACGTTAAT | 0.2
GTAATCAC | -0.0428
AGCGCACA | 0.0267
ACATGGGA | -0.108

Sequence | PBM E-score
GGCTTGTA | -0.0806
ATTCCTGG | -0.223
GCGGCCAA | -0.173
ATTACTAG | -0.227
GAAGGGGA | -0.169
GACCGGTC | -0.0292
GTATGTAA | 0.258
GACCTTCC | -0.0512
CACAATTA | 0.157
ACACGGAC | -0.0783
CCCGTAAA | 0.381
AGGCTCCA | -0.276
CATATTAG | 0.024
CCCAGGCA | -0.37
AGACGTAC | 0.223
AACCTCTC | -0.264
AACGGCCG | 0.199
CGATACTC | 0.178
CCGTGAGG | -0.331
TCGTTAGA | 0.312
CTGTTGGC | -0.209
ATGCGGAG | -0.218
